We go through 28 molecules from PubChem BioAssay AID264 (DTP/NCI, 2004).

Records with an inconclusive call do not appear. The source holds more than one record for some entries. This is not the full list of results. An entry can have further records. Values given together are repeated measurements (runs, samples, wells, individuals or studies). Counts like (3×) count equal records among those shown.

The subject of this experiment is nude mice, LX-1 lung xenograft intrarenal, tumor weight T/C. Description: NCI In Vivo Anticancer Drug Screen. Data for tumor model Human Lung LX-1 Xenograft (intrarenal inoculation) in NU/NU Swiss (nude) mice. The conditions noted are these: endpoint: mean tumor weight change, higher = larger tumour. Put shortly: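 Compound-treated mice carrying transplanted tumors were compared with vehicle-treated controls. Tumor size was the measured end point, and the value is the treated-group measurement divided by the control-group measurement (T/C).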
On the technique in general: In xenograft studies the graft and the host belong to different species.

The mark [1] stands for this setting: dose: 100.0 mg/kg/injection, schedule: Q01DX010 (sc), vehicle: saline with Tween-80.
Where [2] appears, read: dose: 200.0 mg/kg/injection, schedule: Q01DX010 (sc), vehicle: saline with Tween-80.
Setting [3] is: dose: 400.0 mg/kg/injection, schedule: Q01DX010 (sc), vehicle: saline with Tween-80.
The mark [4] stands for this setting: dose: 25.0 mg/kg/injection, schedule: Q01DX010 (sc), vehicle: saline.
The mark [5] stands for this setting: dose: 100.0 mg/kg/injection, schedule: Q01DX010 (sc), vehicle: Klucel (hydroxypropylcellulose) (HPC).
Where [6] appears, read: dose: 200.0 mg/kg/injection, schedule: Q01DX010 (sc), vehicle: saline.
[7] abbreviates: dose: 8.0 mg/kg/injection, schedule: Q01DX010 (sc), vehicle: saline.
[8] abbreviates: dose: 16.0 mg/kg/injection, schedule: Q01DX010 (sc), vehicle: saline.
[9] abbreviates: dose: 32.0 mg/kg/injection, schedule: Q01DX010 (sc), vehicle: saline.
The mark [10] stands for this setting: dose: 20.0 mg/kg/injection, schedule: Q04DX003 (sc), vehicle: Klucel (hydroxypropylcellulose) (HPC).

As to `O=c1[nH]c(=O)n(C2CC(O)C(CO)O2)cc1I` (stereo not drawn), the T/C is, setting by setting: under setting [1], 41 % of control, 71 % of control, 76 % of control; under setting [2], 14 % of control, 37 % of control, 64 % of control; under setting [3], 19 % of control and 53 % of control.
`CCCCCCCCCCCCCCCC(=O)OCC1OC(n2ccc(N)nc2=O)C(O)C1O` (stereo not drawn): the T/C reads like this: (dose: 75.0 mg/kg/injection, schedule: Q04DX003 (sc), vehicle: saline with Tween-80) 14 % of control, 29 % of control, 51 % of control; (dose: 150.0 mg/kg/injection, schedule: Q04DX003 (sc), vehicle: saline with Tween-80) -17 % of control and 14 % of control (2×).
Take `Cc1c2ccncc2c(C)c2c1[nH]c1ccccc12`: the T/C under setting [4] was 54 % of control and 105 % of control.
Regarding `CC(=O)OCc1cc(=O)n(C)c2c3c4c(cc12)c(C)cc(=O)n4CO3`, the T/C under setting [5] is 25 % of control and 84 % of control.
For the molecule `C[C@H](N)C(=O)N[C@@H]1[C@H]2C(=C(O)C[C@@H](O)[C@@H]2O)C(=O)O[C@@H]1C`, the T/C (dose: 2400.0 mg/kg/injection, schedule: Q04DX003 (sc), vehicle: saline) is 72 % of control and 111 % of control.
Regarding `CC[C@@H](C)[C@@H]1NC(=O)C(NC(=O)C(CC(C)C)N(C)C(=O)C2CCCN2C(=O)C(C)O)C(C)OC(=O)C(Cc2ccc(OC)cc2)N(C)C(=O)C2CCCN2C(=O)C(CC(C)C)NC(=O)C(C)C(=O)C(C(C)C)OC(=O)C[C@H]1O` (stereo partly drawn), the T/C (dose: 150.0 micrograms/kg/injection, schedule: Q04DX003 (sc), vehicle: distilled water + alcohol) is 19 % of control and 104 % of control; the T/C (dose: 300.0 micrograms/kg/injection, schedule: Q04DX003 (sc), vehicle: distilled water + alcohol) was 50 % of control and 92 % of control.
Turning to `COc1cccc2c1C(=O)c1c(O)c3c(c(O)c1C2=O)C[C@@](O)(/C(C)=N/NC(=O)c1ccccc1)C[C@@H]3OC1CC(N)C(O)C(C)O1` (stereo partly drawn), the T/C (dose: 5.0 mg/kg/injection, schedule: Q04DX003 (sc), vehicle: water) is 46 % of control and 82 % of control.
Take `CCNC(=O)OCc1c(COC(=O)NCC)c(-c2ccc(Cl)c(Cl)c2)n2c1CCC2`: the T/C reads like this: (dose: 25.0 mg/kg/injection, schedule: Q01DX010 (sc), vehicle: saline with Tween-80) 26 % of control, 81 % of control, 91 % of control; (dose: 50.0 mg/kg/injection, schedule: Q01DX010 (sc), vehicle: saline with Tween-80) 20 % of control, 116 % of control, 196 % of control.
For the molecule `S=c1nc[nH]c2nc[nH]c12`, the T/C was 40 % of control, 67 % of control, 68 % of control (dose: 12.5 mg/kg/injection, schedule: Q01DX010 (sc), vehicle: Klucel (hydroxypropylcellulose) (HPC)); 47 % of control and 79 % of control (dose: 25.0 mg/kg/injection, schedule: Q01DX010 (sc), vehicle: Klucel (hydroxypropylcellulose) (HPC)).
For `Nc1nc(F)nc2c1ncn2C1OC(COP(=O)(O)O)C(O)C1O` (stereo not drawn), the T/C under setting [6] was -36 % of control and 16 % of control.
On to `CCCCNCCCNCCCNC(=O)c1csc(-c2csc(CCNC(=O)C(NC(=O)C(C)C(O)C(C)NC(=O)C(NC(=O)c3nc(C(CC(N)=O)NCC(N)C(N)=O)nc(N)c3C)C(OC3OC(CO)C(O)C(O)C3OC3OC(CO)C(O)C(OC(N)=O)C3O)c3cnc[nH]3)C(C)O)n2)n1` (stereo not drawn), for which the T/C runs as follows: under setting [7], 31 % of control, 45 % of control, 65 % of control; under setting [8], 14 % of control, 40 % of control, 45 % of control; under setting [9], 18 % of control, 28 % of control, 45 % of control; (dose: 64.0 mg/kg/injection, schedule: Q01DX010 (sc), vehicle: saline) 9 % of control and 37 % of control.
In the case of `O/N=C/c1ccccc1O.O/N=C/c1ccccc1O.[Cu]`, where the note is “dose: 800.0 mg/kg/injection, schedule: Q04DX003 (sc), vehicle: saline with Tween-80”, the T/C was 60 % of control and 100 % of control.
`CC1=C(C)C(=O)O[C@@H]([C@](C)(O)[C@]2(O)CC[C@@]3(O)[C@@H]4C[C@H]5O[C@]56[C@@H](O)C=CC(=O)[C@]6(C)[C@H]4CC[C@]23C)C1`: the T/C reads like this: under setting [7], 77 % of control and 110 % of control; under setting [8], 81 % of control, 83 % of control, 114 % of control; under setting [9], 60 % of control, 86 % of control, 114 % of control.
Turning to `CC12CCC3C(CCC4CC(OC(=O)Cc5ccc(N(CCCl)CCCl)cc5)CCC43C)C1CCC(=O)N2` (stereo not drawn), the T/C (dose: 50.0 mg/kg/injection, schedule: Q04DX003 (sc), vehicle: saline with Tween-80) was 36 % of control and 87 % of control; the T/C (dose: 100.0 mg/kg/injection, schedule: Q04DX003 (sc), vehicle: saline with Tween-80) was 37 % of control and 84 % of control.
For `O=C(N/N=C\c1cc(Br)cc(Br)c1O)N/N=C/c1cc(Br)cc(Br)c1O`, the T/C by setting is: under setting [1], 85 % of control and 257 % of control; under setting [2], 56 % of control and 158 % of control; under setting [3], 49 % of control and 373 % of control.
For `CCCNC1=C(C)C(=O)C2=C(C1=O)[C@H](COC(N)=O)[C@]1(OC)[C@@H]3N[C@@H]3CN21`, the T/C by setting is: (dose: 6.0 mg/kg/injection, schedule: Q04DX003 (sc), vehicle: suspension in saline) 43 % of control and 70 % of control; (dose: 12.0 mg/kg/injection, schedule: Q04DX003 (sc), vehicle: suspension in saline) 23 % of control, 30 % of control, 97 % of control.
For `COC1=C(N)C(=O)c2nc(-c3nc(C(=O)O)c(C)c(-c4ccc(OC)c(OC)c4O)c3N)ccc2C1=O`, the T/C (dose: 0.5 mg/kg/injection, schedule: Q01DX010 (sc), vehicle: saline) is -71 % of control and -11 % of control.
On to `Cc1ccc(S(=O)(=O)N/N=C/C(=O)O)cc1`, for which the T/C under setting [5] is 38 % of control and 118 % of control.
On to `CN1CCN(CCCN2c3ccccc3Sc3ccc(C(F)(F)F)cc32)CC1`, for which the T/C is 86 % of control and 188 % of control under setting [4]; 13 % of control, 62 % of control, 173 % of control under setting [6].
As to `CNc1nc(N(C)C)nc(N(C)C)n1`, under “dose: 50.0 mg/kg/injection, schedule: Q04DX003 (sc), vehicle: water”, the T/C was 52 % of control and 227 % of control.
Regarding `CNNCc1ccc(C(=O)NC(C)C)cc1`, under “dose: 50.0 mg/kg/injection, schedule: Q01DX010 (sc), vehicle: saline”, the T/C is -12 % of control, 12 % of control, 16 % of control.
For `Nc1ncn(C2OC(CO)C(O)C2O)c(=O)n1` (stereo not drawn), the T/C (dose: 400.0 mg/kg/injection, schedule: Q04DX003 (sc), vehicle: suspension in saline) is 33 % of control and 60 % of control.
`COC1C(O)CC(OC2CC(OC3CC(O[C@@H]4C(=O)c5c(cc6cc(OC7CC(OC8CC(O)C(O)C(C)O8)C(O)C(C)O7)c(C)c(O)c6c5O)C[C@H]4[C@H](OC)C(=O)[C@@H](O)[C@@H](C)O)OC(C)C3O)OC(C)C2O)OC1C` (stereo partly drawn): the T/C was -88 % of control and 42 % of control (dose: 0.75 mg/kg/injection, schedule: Q01DX010 (sc), vehicle: saline); -51 % of control, -29 % of control, 2 % of control (dose: 1.5 mg/kg/injection, schedule: Q01DX010 (sc), vehicle: saline); -66 % of control and 1 % of control (dose: 3.0 mg/kg/injection, schedule: Q01DX010 (sc), vehicle: saline).
As to `CC1CN1C(=O)NCCCCCCNC(=O)N1CC1C` (stereo not drawn), under setting [10], the T/C was 20 % of control and 64 % of control.
`C/C(=C\c1ccccc1)[N+](=O)[O-]`: for the setting “dose: 50.0 mg/kg/injection, schedule: Q01DX010 (sc), vehicle: Klucel (hydroxypropylcellulose) (HPC)”, the T/C was 101 % of control and 155 % of control.
Consider `COc1cccc2c1C(=O)c1c(O)c3c(c(O)c1C2=O)C[C@@](O)(C(=O)CO)C[C@@H]3OC1CC(N)C(O)C(C)O1` (stereo partly drawn), for which the T/C is 87 % of control and 153 % of control (dose: 0.25 mg/kg/injection, schedule: Q01DX010 (ip), vehicle: water); 42 % of control, 55 % of control, 107 % of control (dose: 8.0 mg/kg/injection, schedule: Q04DX003 (sc), vehicle: water).
`CNC(=O)OCc1c(COC(=O)NC)c(-c2ccccc2)n(C)c1-c1ccccc1`: the T/C (dose: 400.0 mg/kg/injection, schedule: Q04DX003 (sc), vehicle: distilled water + Tween-80) was 55 % of control and 102 % of control.
On to `NC(Cc1ccc(N(CCCl)CCCl)cc1)C(=O)O` (stereo not drawn), for which the T/C was 51 % of control and 115 % of control (dose: 10.0 mg/kg/injection, schedule: Q04DX003 (sc), vehicle: Klucel (hydroxypropylcellulose) (HPC)); 29 % of control and 69 % of control under setting [10].
